Laboratory results published in PubChem BioAssay AID1508642 (National Center for Advancing Translational Sciences (NCATS), 2021).
Screen size: about 43,000 compounds; about 200 (0.47%) were called active. Roughly 12% stayed inconclusive and do not appear here. Calls follow the shape of the dose curve; as a rule, active = well fitted cell-killing curve with a large enough effect; inconclusive = small, poorly fitted or top-dose-only effect, or effect the other way; inactive = flat fitted curve, though single readings scatter. The list shows a part of the results.

experiment: Cell viability qHTS assay in S16 Pmp22-F2sN cells; settings: S16 Pmp22-F2sN Schwann cells (luciferase reporters placed in the Pmp22 gene) viability, CellTiter-Glo, 24 h; series mostly up to 57.5 µM; activity change, negative = cytotoxicity: at the top concentration; also: nearly all actives have a fitted effect of over 65% in size
Outline: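 Luminescence from CellTiter-Glo, read by CCD camera after a 15 min room-temperature incubation, served as the viability signal. Reporter Schwann cells (S16 Pmp22-F2sN) had been treated with pin-transferred compounds for 24 h at 37C.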
% is scaled to controls: 0 for no effect and ±100 for the full control effect.

Compound	activity change, negative = cytotoxicity
CCOC(=O)c1ccc(NC(=O)c2oc(=O)c3ccccc3c2-c2ccccc2)cc1	inactive: 5.69%
COc1ccccc1-c1nc2c(c(SCC(=O)Nc3c(C)cc(C)cc3C)n1)Cc1c(CO)cnc(C)c1O2	inactive: 4.05%
CCC(=O)N1CCc2cc(S(=O)(=O)CCC(=O)NCc3ccc(C)cc3)ccc21	inactive: 15.4%
CCOC(=O)c1c(NC(=O)c2cc3nc(-c4ccc(OC)cc4)cc(C(F)(F)F)n3n2)sc2c1CCC(C)C2 (centres undefined)	inactive: -7.75%
CCc1cccc(NC(=O)C(Cc2ccccc2)NS(=O)(=O)c2ccc3c(c2)oc(=O)n3C)c1 (centres undefined)	inactive: -4.45%
CCCCOC(=O)c1ccc(NC(=O)Cn2nnc3sc4c(c3c2=O)CCCC4)cc1	inactive: 11.9%
Cc1cccc(NC(=O)c2sc(-n3nc(C)c(Cc4ccc5c(c4)OCO5)c3C)nc2C)c1C	inactive: -15.4%
COc1ccc(-c2noc(CSc3nnc(C)n3-c3ccc(OC)cc3)n2)cc1	inactive: -10.9%
COc1ccccc1NC(=O)c1sc2nc(N3CCOCC3)c3c(c2c1N)CC(C)(C)OC3	inactive: 4.98%
COc1ccc(-c2cc(C)no2)cc1S(=O)(=O)NC(C)C	inactive: -1.91%
CCCOC(=O)CSc1ncnc2sc3c(c12)CCC(C)C3 (centres undefined)	inactive: 1.22%
COc1cccc(NC(=O)N2CCN3CCCCC3C2)c1 (centres undefined)	inactive: 1.15%
COc1cc(OC)cc(N2C(=O)N(CC(=O)c3ccc(F)cc3)c3ccccc3S2(=O)=O)c1	inactive: 2.31%
COc1ccc(CN2CCc3nc(SCC(=O)Nc4cc(C)cc(C)c4)[nH]c(=O)c3C2)cc1	inactive: 0.309%
COc1ccc(-c2noc(Cn3c(=O)c4ccccc4n(CC(=O)Nc4cccc(OC)c4)c3=O)n2)cc1	inactive: -3.11%
CCOC(=O)c1ccc(NC(=O)N2CCOc3ccccc32)cc1	inactive: 4.82%
COCCCNC(=O)C(=O)Nc1c2c(nn1-c1cccc(Cl)c1)CSC2	inactive: -3.64%
Cc1ccccc1-c1nnc(CN2CCN(c3ccccn3)CC2)o1	inactive: 4.61%
Cc1cc(Br)ccc1NC(=O)C1CCN(S(=O)(=O)c2cccc3nsnc23)CC1	inactive: -2.53%
CCCCCSc1nc2sc3c(c2c(=O)n1-c1ccccc1)CCN(C(C)=O)C3	inactive: -2.34%
Cc1nn(C(=O)c2ccccc2F)c(C)c1S(=O)(=O)N1CCCCCC1	inactive: -8.05%
COc1ccc(-c2oc3ncn4nc(COc5c(C)cccc5C)nc4c3c2-c2ccc(OC)cc2)cc1	inactive: 14%
CCOc1ccccc1NC(=O)N1CCc2cc(S(=O)(=O)N3CCC(C)CC3)ccc21	inactive: 1.41%
CNC(=O)Cn1cc(S(=O)(=O)Cc2ccccc2F)c2ccccc21	inactive: 7.67%

Compound	activity change, negative = cytotoxicity
COC(=O)c1c(-c2cccs2)csc1NC(=O)COc1c(C)ccc(C)c1C	inactive: -5.45%
CCOc1ccccc1CNC(=O)C1CCCN(c2ncnc3onc(-c4ccc(F)cc4)c23)C1 (centres undefined)	inactive: 3.14%
Cc1ccc(CN2CCc3nc(N4CCN(c5ccccc5F)CC4)ncc3C2)cc1C	inactive: -3.3%
COc1cccc(-c2cc(C(F)(F)F)nc(NCCc3ccccc3)n2)c1	inactive: 13.7%
Cc1nc2c(C(=O)NCCc3ccc(Cl)cc3)c[nH]n2c(=O)c1Cc1ccc(Cl)cc1	inactive: 4.59%
O=C(CSc1nnc(-c2ccc(O)cc2)o1)c1ccc(Br)cc1	inactive: 1.16%
Cc1ccc2c(c1)-c1nc(-c3ccc4c(c3)NC(=O)CO4)cc(-c3ccc(F)cc3)c1CO2	inactive: 22.7%
CCNC(=O)c1cnc2c(-c3ccccc3)c(C)nn2c1C	inactive: 7.48%
CNC(=O)CN1C(=O)c2cccnc2Sc2ccccc21	inactive: 0.0311%
CC(C)CC1N=C2c3ccccc3N=C(SCC(=O)NCCc3ccc(Cl)cc3)N2C1=O (centres undefined)	inactive: -0.518%
CC(C)CCn1c(=O)c2sccc2n2c(CCCC(=O)NC(C)C)nnc12	inactive: -0.0957%
COc1ccc(-c2nc3cc(C)ccn3c2NC(=O)c2ccc(C)c(C)c2)cc1	inactive: 3.91%
COc1cc(Cl)c(C)cc1NC(=O)c1cc2c(Cl)nc3ccc(C)cc3c2s1	inactive: -16%
Cc1cccc(-c2nc3c(c(SCc4ccccc4Cl)n2)Cc2c(CO)cnc(C)c2O3)c1	inactive: 8.36%
CCOc1ccccc1NC(=O)c1c(NC(=O)C(C)Oc2ccc(Cl)cc2)sc2c1CCCCC2 (centres undefined)	inactive: 16.7%
Cc1cccc(OCC(=O)Nc2ccccc2OCc2cc(=O)n3ccccc3n2)c1	inactive: 1.04%
CN(C)c1ccc(-n2c(CCC(=O)O)ccc2-c2ccccc2)cc1	inactive: 18.7%
COc1ccc(CC(=O)NCc2ccc3c(c2)CCN3C(=O)c2ccccc2)cc1OC	inactive: 2.15%
COc1ccc(C2=NC(c3ccncc3)=Nc3ccc(Br)cc3N2)cc1	inactive: 3.04%
CCc1cccc(NC(=O)C2CCCN(S(=O)(=O)c3cccs3)C2)c1 (centres undefined)	inactive: 22.4%
CCn1cc(C(=O)N2CCN(c3ccc(F)cc3)CC2)c(=O)c2cc(S(=O)(=O)N(C)C3CCCCC3)ccc21	inactive: -0.396%
CCOC(=O)C1=C(CN2CCCCC2)NC(=O)NC1c1cc(C)ccc1C (centres undefined)	inactive: -13.3%
CCc1ccc(N2C(=O)CSC23C(=O)N(Cc2ccc(C)cc2)c2ccccc23)cc1 (centres undefined)	inactive: 11.1%
CCCC(CCC)C(=O)Nc1cc(-c2cn3cccnc3n2)ccc1OC	inactive: 2.75%

Compound	activity change, negative = cytotoxicity
O=C(c1ccc2c(c1)CCCC2)N1CCN(c2nc3c(F)cccc3s2)CC1	inactive: -2.29%
COc1cc(C(c2c(C)[nH][nH]c2=O)c2c(C)[nH][nH]c2=O)ccc1OC(=O)c1cccc(C)c1	inactive: 1.08%
CCn1cc(C(=O)NCc2ccccc2)c(=O)c2cc(S(=O)(=O)N3CCc4ccccc4C3)ccc21	inactive: -9.49%
CCOC(=O)C1CCCCN1S(=O)(=O)c1csc(C(N)=O)c1 (centres undefined)	inactive: 4.31%
O=C(CSc1nc2c(c(=O)[nH]1)CCC2)Nc1ccccc1C(F)(F)F	inactive: 1.12%
COc1ccc(S(=O)(=O)c2c(C)c(NS(=O)(=O)c3ccccc3)cc(C)c2O)cc1	inactive: -4.41%
COc1ccc(Cn2cc(C(=O)c3ccc(C)cc3)c(=O)c3cc(OC)c(OC)cc32)cc1	inactive: -5.55%
Cc1ccccc1Nc1c(-c2ccc(Cl)s2)nc2cccc(C)n12	inactive: -1.22%
Cn1c(=O)oc2cc(S(=O)(=O)Nc3ccccc3O)ccc21	inactive: -0.518%
CCOc1ccc(NC(=O)CC2C(=O)N(c3ccccc3)C(=O)N2Cc2ccc3c(c2)OCO3)cc1 (centres undefined)	inactive: -5.44%
Cc1ccc(CNC(=O)C2CCN(S(=O)(=O)c3cc(-c4noc(C)n4)ccc3C)CC2)cc1	inactive: -24.2%
Cc1nc2c(-c3ccccc3)c(C)nn2c(C)c1CCC(=O)NCc1ccc(F)cc1	inactive: 7.89%
Cc1c(Cl)cccc1-n1nc(C)c2c(C(=O)NCc3ccccc3)cc(C3CC3)nc21	inactive: -4.85%
Cc1ccc(-c2cc(NC(=O)COc3ccc(Cl)cc3C)on2)cc1	inactive: -23.1%
CCOc1ccc(CCNC(=O)c2cc3c(s2)-c2ccccc2OC3)cc1OCC	inactive: 16.1%
COc1ccc(-c2cc(C(F)(F)F)nc(SCC(=O)N3CCC(C)CC3)n2)cc1	inactive: 24.4%
COc1ccccc1N1CCN(C(=O)CSc2n[nH]c(-c3ccccc3)n2)CC1	inactive: 3.9%
Cc1cc2ccccc2n1-c1ccc(C(=O)N2CCC(C(=O)NCc3ccccc3Cl)CC2)s1	inactive: -22.4%
Cc1ccc(-n2c3c(c(=O)[nH]c2=O)C(NC(=O)c2ccccc2C)(C(F)(F)F)C(=O)N3)cc1 (centres undefined)	inactive: 3.44%
COC(=O)c1scc(-c2ccc(C)cc2)c1S(=O)(=O)Nc1ccc(N(C)C)cc1	inactive: 12.5%
COc1ccc(-c2cn3c(n2)sc2cc(C(=O)Nc4cccc(OC)c4)ccc23)cc1	inactive: 9.59%
Cc1ccccc1NCc1cccn1-c1nnc(N2CCC(C)CC2)s1	inactive: -0.294%
CCOC(=O)C1=C(CN2CCN(c3ccccc3F)CC2)NC(=O)NC1c1ccc(Cl)cc1 (centres undefined)	inactive: -21.6%
CC(CNC(=O)Cc1ccc(NC(=O)N2CCSc3ncccc32)cc1)c1ccccc1 (centres undefined)	inactive: -0.549%

Compound	activity change, negative = cytotoxicity
CC(C)CN(CCNC(=O)CN1C(=O)CSc2ccc(S(=O)(=O)N3CCOCC3)cc21)CC(C)C	inactive: 13.7%
Cc1ccc(NC(=O)Cn2c(=O)n(-c3ccccc3)c(=O)c3ccc(C(=O)NCc4ccc5c(c4)OCO5)cc32)c(C)c1	inactive: -4.07%
Cc1cccc(CNC(=O)c2ccc(NC(=O)N3CC(C)Sc4ccccc43)cc2)c1 (centres undefined)	inactive: -5.66%
CCOC(=O)c1cccc(NC(=O)c2ccc3nc(Cc4ccccc4)oc3c2)c1	inactive: -3.58%
O=C(/C=C\c1ccc2c(c1)OCO2)NC1CC(=O)N(c2cccc(F)c2)C1 (centres undefined)	inactive: 2.23%
O=C(Nc1c(-c2ccc(F)cc2)nc2ccccn12)c1ccccc1F	inactive: 2.27%
Cn1c(=O)n(C/C=C/c2ccccc2)c(=O)c2c1nc1n2CCN1c1ccccc1	inactive: -2.59%
CCCCOc1ccc(CNC(=O)C2COc3ccc(OC)cc3C2)cc1 (centres undefined)	inactive: 6.25%
COc1ccc(S(=O)(=O)N(CC(=O)Nc2cccc(C(F)(F)F)c2)c2ccc(C)cc2)cc1	inactive: 2.42%
COc1ccc(CN(Cc2ccco2)c2cnc(S(C)(=O)=O)nc2C(=O)Nc2ccc(F)cc2)cc1	inactive: 2.7%
COc1ccc(OC)c(-c2csc(-c3c(N)c(C(=O)c4ccccc4)n4ccccc34)n2)c1	inactive: 3.85%
COC(=O)c1cccnc1-n1c(=O)c2cccnc2n(CC(=O)Nc2c(C)cc(C)cc2C)c1=O	inactive: 5.77%
O=C(Cn1ncn2nc(-c3cccs3)cc2c1=O)NCc1cccc(Br)c1	inactive: -7.84%
Cc1ccc(NC(=O)CN2C(=O)COc3ccc(S(=O)(=O)N4CCCCC4)cc32)cc1N(C)C	inactive: 13.7%
CCOc1ccc(C(=O)c2cn(CC(=O)Nc3ccc4c(c3)OCO4)c3ccc(OCC)cc3c2=O)cc1	inactive: 3.27%
COc1ccc(-n2c(=O)c3c(c4cc(OC)ccc4n3C)n(Cc3cc(C)ccc3C)c2=O)cc1	inactive: -0.315%
Cc1ccc(C)c(NC(=O)CSc2nc(-c3ccccc3)cc(=O)[nH]2)c1	inactive: -10.1%
COc1ccc(N2CCN(S(=O)(=O)c3c(C)[nH]c(=O)[nH]c3=O)CC2)cc1	inactive: 1.15%
COc1ccc(CCNC(=O)C(=O)Nc2ccc(C)cc2)cc1OC	inactive: 8.31%
CCN(C(=O)c1cc2cc3ccc(OC)cc3nc2o1)c1cccc(C)c1	inactive: -9.38%
CC(=O)c1ccc(Oc2nc(C)nc3c2oc2ccccc23)cc1	inactive: -5.08%
COc1ccc(-c2nc(C(=O)Nc3ccc(C(C)=O)cc3)nn2-c2cccc(Cl)c2)cc1	inactive: 8.57%
